# Results published in PubChem BioAssay AID1347165 (National Center for Advancing Translational Sciences (NCATS), 2019).
# Where “and” joins values, the source holds several entries; their conditions need not be identical. Equal entries are not always repeated. In all, about 220,000 compounds went through this assay and about 5,700 (2.6%) were called active. Inconclusive results, whose numbers are uncertain, are shown with a selection of clear calls. Calls come from the whole dose curve; as a rule, active = well fitted inhibition curve with a large enough effect; inconclusive = small, poorly fitted or top-dose-only effect; inactive = no such curve, though single readings can be large or run the other way. Potencies beside an inconclusive call are fits to weak or partial responses and may not hold up.
# Target: Lysine-specific demethylase 5B (Homo sapiens) (UniProt Q9UGL1)
# Experiment: Primary screen for KDM5B Histone Demethylases FDH-coupled qHTS; note: nearly all actives have a fitted effect of over 70% in size; for activity change, negative = inhibition: 0% is about no effect
# Details: FDH-coupled NADH fluorescence (FDH is formaldehyde dehydrogenase); activity change, negative = inhibition: at 57.7 µM (top of the series) unless noted
# Summary of the method: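 Coupled FDH/NAD⁺ fluorescence readout. KDM5BΔAP 200 nM final; compound titration, 10 min RT preincubation; substrate mix 12.5 µM H3K4me3, 25 µM 2-OG, 50 µM Fe(II), 100 µM ascorbate, 0.25 mM NAD⁺, 0.25 U/mL FDH; ΔRFU over 30 min.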
# Potency is the fitted concentration of half-maximal effect; tags give direction and shape of the fitted curve.
# Chain of UniProt Q9UGL1 (Q9UGL1 whole entry, looked up): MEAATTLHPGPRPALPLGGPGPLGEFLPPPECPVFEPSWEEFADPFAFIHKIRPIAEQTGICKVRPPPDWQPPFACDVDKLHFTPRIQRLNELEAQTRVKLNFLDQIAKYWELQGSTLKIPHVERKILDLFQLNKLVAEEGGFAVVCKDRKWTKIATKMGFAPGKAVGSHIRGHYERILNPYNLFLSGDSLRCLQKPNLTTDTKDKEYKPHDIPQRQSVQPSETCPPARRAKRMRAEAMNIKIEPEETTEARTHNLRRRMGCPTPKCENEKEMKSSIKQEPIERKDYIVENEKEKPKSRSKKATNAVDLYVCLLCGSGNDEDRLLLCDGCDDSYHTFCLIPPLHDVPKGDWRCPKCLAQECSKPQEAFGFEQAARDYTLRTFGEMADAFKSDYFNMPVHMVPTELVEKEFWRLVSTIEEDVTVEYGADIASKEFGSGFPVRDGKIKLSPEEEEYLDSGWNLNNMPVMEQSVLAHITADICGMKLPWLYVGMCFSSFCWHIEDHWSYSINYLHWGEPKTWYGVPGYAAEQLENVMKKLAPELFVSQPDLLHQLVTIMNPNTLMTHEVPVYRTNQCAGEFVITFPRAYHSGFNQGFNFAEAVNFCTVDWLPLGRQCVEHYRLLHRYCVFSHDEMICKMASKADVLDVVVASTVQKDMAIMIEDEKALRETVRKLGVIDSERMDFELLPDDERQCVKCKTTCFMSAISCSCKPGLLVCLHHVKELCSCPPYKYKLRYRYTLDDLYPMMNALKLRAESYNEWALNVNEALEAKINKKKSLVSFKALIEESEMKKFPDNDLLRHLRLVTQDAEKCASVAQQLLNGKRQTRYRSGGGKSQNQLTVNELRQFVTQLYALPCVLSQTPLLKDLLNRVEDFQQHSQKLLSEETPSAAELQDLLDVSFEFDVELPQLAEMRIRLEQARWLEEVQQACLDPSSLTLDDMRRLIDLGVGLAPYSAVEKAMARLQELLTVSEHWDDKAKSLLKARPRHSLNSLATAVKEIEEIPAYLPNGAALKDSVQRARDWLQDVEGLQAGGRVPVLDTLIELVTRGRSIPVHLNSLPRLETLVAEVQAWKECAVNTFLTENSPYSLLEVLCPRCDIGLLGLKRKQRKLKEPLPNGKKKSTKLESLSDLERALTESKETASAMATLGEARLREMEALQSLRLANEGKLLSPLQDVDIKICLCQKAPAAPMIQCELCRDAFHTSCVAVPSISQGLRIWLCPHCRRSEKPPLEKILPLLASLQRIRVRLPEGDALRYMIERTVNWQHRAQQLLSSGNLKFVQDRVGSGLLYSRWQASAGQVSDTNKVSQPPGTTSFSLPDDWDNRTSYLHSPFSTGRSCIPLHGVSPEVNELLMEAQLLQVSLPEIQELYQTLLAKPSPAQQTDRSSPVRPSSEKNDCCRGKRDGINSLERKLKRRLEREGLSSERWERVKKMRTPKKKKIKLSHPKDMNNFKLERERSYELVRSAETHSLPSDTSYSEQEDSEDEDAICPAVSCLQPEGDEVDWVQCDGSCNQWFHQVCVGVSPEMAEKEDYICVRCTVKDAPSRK
Structure (SMILES),Potency,"activity change, negative = inhibition"
COc1ccc(-c2noc(-c3cccn3CC(=O)NCc3ccc(OC)c(OC)c3)n2)cc1F,inactive,
O=C(NCC1CCCO1)N1CCCn2cc(-c3ccccc3)nc21 (configuration not stated),"inconclusive: 20 µM [inhibitor, partial curve, poor fit]",
Cc1ccsc1-c1nc2ccccc2s1,"inconclusive: 25.1 µM [inhibitor, partial curve, poor fit]",
Cc1csc2nc(NC(=O)c3ccccc3)sc(=O)c12,inactive,
CC1(C)CC(=O)c2cc(-c3nc(-c4ccc(F)cc4)cs3)c(=O)[nH]c2C1,"inconclusive: 28.2 µM [inhibitor, single point]",
CC(NC(=O)c1ccc2c(c1)NC(=O)CS2)c1ccco1 (configuration not stated),inactive,
CC1=C[C@@H](CN2CCC[C@H]2CO)[C@H](C(C)C)C[C@H]1Cc1nnc(-c2cncn2C)o1,"inconclusive: 28.2 µM [inhibitor, single point]",
CCCNC(=O)N1CC[C@@H](CC(=O)O)[C@@H](CC2=NCCc3ccc(OC)cc32)C1,active: 39.8 µM,
Cc1c(F)cc(C(N)=O)cc1NS(=O)(=O)c1cccc(Cl)c1C,"inconclusive: 39.8 µM [inhibitor, single point]",
CCN1c2cc(C(=O)Nc3ccc(C)cc3C)ccc2C(=O)N2CCCCCC21 (configuration not stated),"inconclusive: 28.2 µM [inhibitor, partial curve, poor fit]",
CCS(=O)(=O)Nc1ccc(C2=NN(C(C)=O)C(c3ccco3)C2)cc1 (configuration not stated),"inconclusive: 22.4 µM [inhibitor, partial curve, poor fit]",
Nc1cc(N)nc(SCCC(=O)Nc2ccccc2F)n1,inactive,
CCc1ccc(NC(=O)CNC(=O)Cn2c(C)cc3ccccc3c2=O)cc1,"inconclusive: 4.47 µM [inhibitor, partial curve, poor fit]",
CCOc1ccc(CCNC(=O)c2ccc(CSCc3ccccc3C)o2)cc1OCC,,inconclusive: -38.8% [inhibitor]
CCn1nnc2cc(C(=O)Nc3nc(-c4ccc5c(c4)CC(=O)N5)cs3)ccc21,inactive,
O=C(c1ccc(Cl)cc1)N1CCC(N2CCCC2=O)CC1,"inconclusive: 112 µM [inhibitor, single point]",
CCc1ccc(-c2csc(Nc3ccc(O)c(C(=O)O)c3)n2)cc1,"inconclusive: 12.6 µM [inhibitor, partial curve, poor fit]",
O=C(c1ccco1)N1CCC(F)(c2nc(-c3ccncc3)no2)CC1,inactive,
CCN(CC)CCNC(=O)c1ccc(NC(=O)c2cc(-c3ccco3)nc3ccccc23)cc1,"inconclusive: 25.1 µM [inhibitor, partial curve, poor fit]",
COc1cc(C2CC(=O)c3c([nH]c(C(=O)OC4CCCC4)c3C)C2)cc(OC)c1OC (configuration not stated),inactive,
Cc1ccsc1C(=O)N1CCN(c2cc(-c3cccs3)[nH]n2)CC1,"inconclusive: 28.2 µM [inhibitor, single point]",
O=C(NCc1nnc2ccc(-c3ccc(Cl)cc3)nn12)c1ccc(Cl)s1,active: 5.01 µM,
Cc1ncsc1CN1CCC[C@H]1C(=O)N1CCCCCCNC(=O)CC1,"inconclusive: 14.1 µM [inhibitor, partial curve, poor fit]",

Structure (SMILES),Potency,"activity change, negative = inhibition"
CN1C(=O)CCCCC1C(=O)NCc1ccccc1 (configuration not stated),inactive,
Cc1cc(C)cc(-n2c(SCC(=O)Nc3ccc4c(c3)OCO4)nc3c([nH]c4ccccc43)c2=O)c1,"inconclusive: 20 µM [inhibitor, partial curve, poor fit]",
CCN1CCN(C(=O)c2cc3n(n2)CC(c2ccc(Br)cc2)OC3)CC1 (configuration not stated),inactive,
Cc1cccc2[nH]c3c(N4CC=C(c5ccc(F)cc5)CC4)ncnc3c12,"inconclusive: 39.8 µM [inhibitor, partial curve, poor fit]",
CCCN1CCCc2cc(CN(CCCN3CCOCC3)C(=O)Nc3ccc(Cl)c(Cl)c3)ccc21,"inconclusive: 35.5 µM [inhibitor, single point]",
CCOc1cccc(-c2cc(C(=O)O)c3cc(C)cc(C)c3n2)c1,"inconclusive: 25.1 µM [inhibitor, partial curve, poor fit]",
Cc1ccc(C(=O)N2CCC(C(NC(=O)c3ccccc3C)C(=O)NCC(C)C)CC2)cc1 (configuration not stated),inactive,
O=C(COc1ccccc1)NCc1nnc2ccc(-c3ccc(Cl)cc3)nn12,"inconclusive: 35.5 µM [inhibitor, single point]",
O=C(NCCc1cnc(-c2ccccc2)[nH]1)c1ccc(-c2ccccc2)cc1,inactive,
CCn1c(/C=C/c2cn(CC)c3ccccc23)nc2ccccc2c1=O,inactive,
Cc1ccc2[nH]c(=O)c(CCC(=O)NCc3ccncc3)cc2c1,active: 25.1 µM,
Cc1nn(-c2ccc(C(C)(C)C)cc2)c(C)c1[C@@H]1C=C[C@@H](NC(=O)NCc2ccccc2)C1,active: 31.6 µM,
CCNC(=O)CNC(=O)c1cc(-c2ccc(F)cc2)nc2ccccc12,"inconclusive: 22.4 µM [inhibitor, single point]",
O[C@@H]1C[C@@H](c2nc(-c3cccnc3)no2)N(Cc2cc3ccccc3o2)C1,"inconclusive: 35.5 µM [inhibitor, single point]",
Clc1ccc(CSc2nncn3c2cc2occc23)cc1,"inconclusive: 14.1 µM [inhibitor, partial curve, poor fit]",
Cc1cc(C)c(-c2csc(NC(=O)Cn3cnc4c3c(=O)n(C)c(=O)n4C)n2)c(C)c1,inactive,
C[C@@]1(O)CCN(C(=O)CCc2ccc(-c3cccs3)o2)C[C@@H]1O,active: 12.6 µM,
CCc1nc2nc(C)cc(Nc3cc(C)ccc3C)n2n1,inactive,
Fc1ccc(CN2CCN(C3CCNC3)CC2)cc1Cl (configuration not stated),"inconclusive: 7.94 µM [inhibitor, partial curve, poor fit]",
O=C(NC1CCCCCCC1)C1CCN(C(=O)c2ncn3c2COC(c2ccc(F)cc2)C3)CC1 (configuration not stated),inactive,
COCCn1ccc2c(OCC(=O)Nc3cccc(C(F)(F)F)c3)cccc2c1=O,"inconclusive: 35.5 µM [inhibitor, single point] and inconclusive: 31.6 µM [inhibitor, single point]",
O=C(CN1CCN(C(=O)c2ccc3ccccc3n2)CC1)NC1CC1,inactive,
COc1cccc(CNC(=O)c2ccc3c(c2)sc2nc(-c4cccc(OC)c4)cn23)c1,"inconclusive: 31.6 µM [inhibitor, partial curve, poor fit]",

Structure (SMILES),Potency,"activity change, negative = inhibition"
COc1ccccc1OCc1cc(C(=O)N2CCC(C(C)(C)O)CC2)n[nH]1,"inconclusive: 22.4 µM [inhibitor, partial curve, poor fit]",
CCN(CC)c1ccc(NC(=S)Nc2cccc(C)c2)cc1,"inconclusive: 3.55 µM [inhibitor, full curve, poor fit]",
C[C@H](NC(=O)OC(C)(C)C)C(=O)N/N=C/C1=Cc2ccccc2OC1,"inconclusive: 39.8 µM [inhibitor, partial curve, poor fit]",
Cc1ccccc1-c1noc(Cn2cnc3c2c(=O)n(C)c(=O)n3C)n1,inactive,
O=C(/C=C/c1ccc2ccccc2c1)c1ccc(F)cc1F,inactive,
CNC(=O)c1cccc(-c2cnc3[nH]cc(CC(=O)NC4CCC4)c3c2)c1,inactive,
CSc1ccccc1NC(=O)/C=C/c1ccco1,"inconclusive: 39.8 µM [inhibitor, single point]",
Cc1ccc2nc3c(cc(C(=O)NC4CCCC4)c(=N)n3C(C)C)c(=O)n2c1,"inconclusive: 35.5 µM [inhibitor, partial curve, poor fit]",
COc1ccc2[nH]c(=O)c(CCC(=O)N3CCN(CC(C)C)CC3)cc2c1,active: 28.2 µM,
CCOC(=O)c1ccc(N2CCN(CC)CC2)c(NC(=O)COc2ccc(CC)cc2)c1,"inconclusive: 35.5 µM [inhibitor, single point]",
COC(=O)C1=C(C)N=C2SC=C(CC(=O)NCCc3ccccc3)N2C1c1cccc(OC)c1 (configuration not stated),"inconclusive: 35.5 µM [inhibitor, partial curve, poor fit]",
COc1ccc2[nH]cc(CCNC(=O)Nc3cc(C)cc(C)c3)c2c1,"inconclusive: 11.2 µM [inhibitor, partial curve, poor fit]",
O=c1c2cccnc2n(Cc2cccc(F)c2)c(=O)n1Cc1ccc(F)cc1,"inconclusive: 5.62 µM [inhibitor, partial curve, poor fit]",
O=C(NCC1CCN(c2cc(-c3ccccc3)[nH]n2)CC1)c1n[nH]c2c1CCCC2,"inconclusive: 31.6 µM [inhibitor, partial curve, poor fit]",
O=C1CCC2(CCCO2)CCN1Cc1ccc(C(F)(F)F)cc1 (configuration not stated),inactive,
COc1ccc2c(c1)c1c(c(=O)n(-c3cccc(C)c3)c(=O)n1CC(=O)NCCC1=CCCCC1)n2C,"inconclusive: 12.6 µM [inhibitor, partial curve, poor fit]",
COc1ccccc1Nc1nc(-c2ccccc2)c(CC(=O)O)s1,"inconclusive: 14.1 µM [inhibitor, partial curve, poor fit]",
O=C(N[C@@H]1CCOC[C@H]1OCCO)c1cc(C2CC2)nc2ccccc12,active: 28.2 µM,
Cc1cccc(CNS(=O)(=O)c2ccc(-c3coc(C)n3)cc2)c1,,inconclusive: -33.4% [inhibitor]
CCNC(=O)[C@@H]1CCCN1[C@@H](C(=O)NC)C1CC1,"inconclusive: 39.8 µM [inhibitor, partial curve]",
COc1ccc(Nc2ccc3c(n2)CN(Cc2ccc(F)cc2)C(=O)CO3)cn1,"inconclusive: 35.5 µM [inhibitor, partial curve, poor fit]",
